Experimental data taken from the supplement of paper PMC11876631.
± gives the standard deviation of the averaged measurements. Laboratory Escherichia coli strains with one amino-acid change in an essential protein, pooled on minimal glucose agar with carbenicillin or gentamicin at twice the control MIC (plus kanamycin and chloramphenicol for the plasmids), 48 h. Fold change of barcode share against drug-free plates; higher = less susceptible. Active = above 20 in both replicates (the paper's putatively resistant). '<' = one read or none on drug, '>' = one read or none on a drug-free plate. Shares are relative, so most strains fall below 1 when a few take over. Listed are strains with at least 15 reads on both drug-free plates, and hits; most hits rest on fewer reference reads. Replicate rank correlation about 0.5. Edits are read from barcodes.

Target: Escherichia coli (laboratory strain)
Experiment: barcode share on antibiotic plates over drug-free plates; higher = less susceptible
Protocol: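 A pool of E. coli strains, each edited to carry one amino-acid change in an essential protein, was grown for 48 h on minimal glucose agar with or without antibiotic; strain barcodes were sequenced; mean of two replicates.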

[1] = antibiotic: carbenicillin, 2× MIC (3.1 µg/mL)
[2] = antibiotic: gentamicin, 2× MIC (MIC 0.45 µg/mL)

Protein | fold change of barcode share [1] | fold change of barcode share [2]
aroB V165A (protein) MERIVVTLGERSYPITIASGLFNEPASFLPLKSGEQVMLVTNETLAPLYLDKVRGVLEQAGVNVDSVILPDGEQYKSLAVLDTVFTALLQKPHGRDTTLVALGGGVVGDLTGFAAASYQRGVRFIQVPTTLLSQVDSSVGGKTAVNHPLGKNMIGAFYQPASVVADLDCLKTLPPRELASGLAEVIKYGIILDGAFFNWLEENLDALLRLDGPAMAYCIRRCCELKAEVVAADERETGLRALLNLGHTFGHAIEAEMGYGNWLHGEAVAAGMVMAARTSERLGQFSSAETQRIITLLKRAGLPVNGPREMSAQAYLPHMLRDKKVLAGEMRLILPLAIGKSEVRSGVSHELVLNAIADCQSA | 0.373 ± 0.086 | < 0.00446
leuC V201D (protein) MAKTLYEKLFDAHVVYEAENETPLLYIDRHLVHEVTSPQAFDGLRAHGRPVRQPGKTFATMDHNVSTQTKDINACGEMARIQMQELIKNCKEFGVELYDLNHPYQGIVHVMGPEQGVTLPGMTIVCGDSHTATHGAFGALAFGIGTSEVEHVLATQTLKQGRAKTMKIEVQGKAAPGITAKDIVLAIIGKTGSAGGTGHVDEFCGEAIRDLSMEGRMTLCNMAIEMGAKAGLVAPDETTFNYVKGRLHAPKGKDFDDAVAYWKTLQTDEGATFDTVVTLQAEEISPQVTWGTNPGQVISVNDNIPDPASFADPVERASAEKALAYMGLKPGIPLTEVAIDKVFIGSCTNSRIEDLRAAAEIAKGRKVAPGVQALVVPGSGPVKAQAEAEGLDKIFIEAGFEWRLPGCSMCLAMNNDRLNPGERCASTSNRNFEGRQGRGGRTHLVSPAMAAAAAVTGHFADIRNIK | 3.16 ± 0.058 | 
leuC V201P (protein) MAKTLYEKLFDAHVVYEAENETPLLYIDRHLVHEVTSPQAFDGLRAHGRPVRQPGKTFATMDHNVSTQTKDINACGEMARIQMQELIKNCKEFGVELYDLNHPYQGIVHVMGPEQGVTLPGMTIVCGDSHTATHGAFGALAFGIGTSEVEHVLATQTLKQGRAKTMKIEVQGKAAPGITAKDIVLAIIGKTGSAGGTGHVPEFCGEAIRDLSMEGRMTLCNMAIEMGAKAGLVAPDETTFNYVKGRLHAPKGKDFDDAVAYWKTLQTDEGATFDTVVTLQAEEISPQVTWGTNPGQVISVNDNIPDPASFADPVERASAEKALAYMGLKPGIPLTEVAIDKVFIGSCTNSRIEDLRAAAEIAKGRKVAPGVQALVVPGSGPVKAQAEAEGLDKIFIEAGFEWRLPGCSMCLAMNNDRLNPGERCASTSNRNFEGRQGRGGRTHLVSPAMAAAAAVTGHFADIRNIK | 1.32 ± 0.65 | 0.0158 ± 0.0039
leuD V12A (protein) MAEKFIKHTGLAVPLDAANVDTDAIIPKQFLQKVTRTGFGAHLFNDWRFLDEKGQQPNPDFVLNFPQYQGASILLARENFGCGSSREHAPWALTDYGFKVVIAPSFADIFYGNSFNNQLLPVKLSDAEVDELFALVKANPGIHFDVDLEAQEVKAGEKTYRFTIDAFRRHCMMNGLDSIGLTLQHDDAIAAYEAKQPAFMN | 0.353 ± 0.064 | < 0.00659
leuD L63W (protein) MAEKFIKHTGLVVPLDAANVDTDAIIPKQFLQKVTRTGFGAHLFNDWRFLDEKGQQPNPDFVWNFPQYQGASILLARENFGCGSSREHAPWALTDYGFKVVIAPSFADIFYGNSFNNQLLPVKLSDAEVDELFALVKANPGIHFDVDLEAQEVKAGEKTYRFTIDAFRRHCMMNGLDSIGLTLQHDDAIAAYEAKQPAFMN | 0.749 ± 0.41 | 0.0325 ± 0.023
leuD L63P (protein) MAEKFIKHTGLVVPLDAANVDTDAIIPKQFLQKVTRTGFGAHLFNDWRFLDEKGQQPNPDFVPNFPQYQGASILLARENFGCGSSREHAPWALTDYGFKVVIAPSFADIFYGNSFNNQLLPVKLSDAEVDELFALVKANPGIHFDVDLEAQEVKAGEKTYRFTIDAFRRHCMMNGLDSIGLTLQHDDAIAAYEAKQPAFMN | 0.369 ± 0.12 | 0.193 ± 0.15
leuD V13P (protein) MAEKFIKHTGLVPPLDAANVDTDAIIPKQFLQKVTRTGFGAHLFNDWRFLDEKGQQPNPDFVLNFPQYQGASILLARENFGCGSSREHAPWALTDYGFKVVIAPSFADIFYGNSFNNQLLPVKLSDAEVDELFALVKANPGIHFDVDLEAQEVKAGEKTYRFTIDAFRRHCMMNGLDSIGLTLQHDDAIAAYEAKQPAFMN | 0.245 ± 0.093 | 0.0246 ± 0.015
leuD L63Q (protein) MAEKFIKHTGLVVPLDAANVDTDAIIPKQFLQKVTRTGFGAHLFNDWRFLDEKGQQPNPDFVQNFPQYQGASILLARENFGCGSSREHAPWALTDYGFKVVIAPSFADIFYGNSFNNQLLPVKLSDAEVDELFALVKANPGIHFDVDLEAQEVKAGEKTYRFTIDAFRRHCMMNGLDSIGLTLQHDDAIAAYEAKQPAFMN | 0.332 ± 0.029 | 0.215 ± 0.23
leuD V13Q (protein) MAEKFIKHTGLVQPLDAANVDTDAIIPKQFLQKVTRTGFGAHLFNDWRFLDEKGQQPNPDFVLNFPQYQGASILLARENFGCGSSREHAPWALTDYGFKVVIAPSFADIFYGNSFNNQLLPVKLSDAEVDELFALVKANPGIHFDVDLEAQEVKAGEKTYRFTIDAFRRHCMMNGLDSIGLTLQHDDAIAAYEAKQPAFMN | 0.274 ± 0.052 | < 0.00862
leuD L74Q (protein) MAEKFIKHTGLVVPLDAANVDTDAIIPKQFLQKVTRTGFGAHLFNDWRFLDEKGQQPNPDFVLNFPQYQGASIQLARENFGCGSSREHAPWALTDYGFKVVIAPSFADIFYGNSFNNQLLPVKLSDAEVDELFALVKANPGIHFDVDLEAQEVKAGEKTYRFTIDAFRRHCMMNGLDSIGLTLQHDDAIAAYEAKQPAFMN | 0.428 ± 0.24 | < 0.0156
leuD V12D (protein) MAEKFIKHTGLDVPLDAANVDTDAIIPKQFLQKVTRTGFGAHLFNDWRFLDEKGQQPNPDFVLNFPQYQGASILLARENFGCGSSREHAPWALTDYGFKVVIAPSFADIFYGNSFNNQLLPVKLSDAEVDELFALVKANPGIHFDVDLEAQEVKAGEKTYRFTIDAFRRHCMMNGLDSIGLTLQHDDAIAAYEAKQPAFMN | 0.567 ± 0.45 | 0.0168 ± 0.0092
leuD L63A (protein) MAEKFIKHTGLVVPLDAANVDTDAIIPKQFLQKVTRTGFGAHLFNDWRFLDEKGQQPNPDFVANFPQYQGASILLARENFGCGSSREHAPWALTDYGFKVVIAPSFADIFYGNSFNNQLLPVKLSDAEVDELFALVKANPGIHFDVDLEAQEVKAGEKTYRFTIDAFRRHCMMNGLDSIGLTLQHDDAIAAYEAKQPAFMN | 0.531 ± 0.094 | 0.257 ± 0.25
leuD I25A (protein) MAEKFIKHTGLVVPLDAANVDTDAAIPKQFLQKVTRTGFGAHLFNDWRFLDEKGQQPNPDFVLNFPQYQGASILLARENFGCGSSREHAPWALTDYGFKVVIAPSFADIFYGNSFNNQLLPVKLSDAEVDELFALVKANPGIHFDVDLEAQEVKAGEKTYRFTIDAFRRHCMMNGLDSIGLTLQHDDAIAAYEAKQPAFMN | 0.771 ± 0.018 | 0.0145 ± 0.0082
leuD V13D (protein) MAEKFIKHTGLVDPLDAANVDTDAIIPKQFLQKVTRTGFGAHLFNDWRFLDEKGQQPNPDFVLNFPQYQGASILLARENFGCGSSREHAPWALTDYGFKVVIAPSFADIFYGNSFNNQLLPVKLSDAEVDELFALVKANPGIHFDVDLEAQEVKAGEKTYRFTIDAFRRHCMMNGLDSIGLTLQHDDAIAAYEAKQPAFMN | 0.65 ± 0.12 | < 0.0107
leuD V13A (protein) MAEKFIKHTGLVAPLDAANVDTDAIIPKQFLQKVTRTGFGAHLFNDWRFLDEKGQQPNPDFVLNFPQYQGASILLARENFGCGSSREHAPWALTDYGFKVVIAPSFADIFYGNSFNNQLLPVKLSDAEVDELFALVKANPGIHFDVDLEAQEVKAGEKTYRFTIDAFRRHCMMNGLDSIGLTLQHDDAIAAYEAKQPAFMN | 0.548 ± 0.12 | < 0.0071
leuD I25Q (protein) MAEKFIKHTGLVVPLDAANVDTDAQIPKQFLQKVTRTGFGAHLFNDWRFLDEKGQQPNPDFVLNFPQYQGASILLARENFGCGSSREHAPWALTDYGFKVVIAPSFADIFYGNSFNNQLLPVKLSDAEVDELFALVKANPGIHFDVDLEAQEVKAGEKTYRFTIDAFRRHCMMNGLDSIGLTLQHDDAIAAYEAKQPAFMN | 0.781 ± 0.46 | 0.0332 ± 0.03
leuD L74A (protein) MAEKFIKHTGLVVPLDAANVDTDAIIPKQFLQKVTRTGFGAHLFNDWRFLDEKGQQPNPDFVLNFPQYQGASIALARENFGCGSSREHAPWALTDYGFKVVIAPSFADIFYGNSFNNQLLPVKLSDAEVDELFALVKANPGIHFDVDLEAQEVKAGEKTYRFTIDAFRRHCMMNGLDSIGLTLQHDDAIAAYEAKQPAFMN | 0.528 ± 0.3 | 0.0163 ± 0.012
